Substitutions are numbered along the chain they refer to; changes in the protein carry UniProt numbers. The list shows a part of the results.

The chains are these.
T1: RBFOX1 RRM (Homo sapiens, UniProt Q9NWB1 109-208)
T1 sequence: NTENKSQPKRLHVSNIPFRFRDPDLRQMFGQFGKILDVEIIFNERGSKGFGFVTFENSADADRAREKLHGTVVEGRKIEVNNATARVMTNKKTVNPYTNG

B1: ACUCCUU (DNA:RNA)
RNA: GGGAGACCGGAAUUCAGAUUGUCCACUCCUUUUAAAUCCCGUCGUAGCCACCA
DNA 1: CAATCTGAATTCCGGTCTCCC
DNA 2: TGGTGGCTACGACGGGATT
B2: UUUACGU (DNA:RNA)
RNA: B1 RNA with A25U, C26U, C28A, U30G
DNA 1: CAATCTGAATTCCGGTCTCCC
DNA 2: TGGTGGCTACGACGGGATT
B3: UGGAGCA (DNA:RNA)
RNA: GGGAGACCGGAAUUCAGAUUGUCCUGGAGCAUUAAAUCCCGUCGUAGCCACCA
DNA 1: CAATCTGAATTCCGGTCTCCC
DNA 2: TGGTGGCTACGACGGGATT
B4: UGCUCAU (DNA:RNA)
RNA: B1 RNA with A25U, C26G, U27C, C28U, U30A
DNA 1: CAATCTGAATTCCGGTCTCCC
DNA 2: TGGTGGCTACGACGGGATT
B5: CUAGCGU (DNA:RNA)
RNA: B1 RNA with A25C, C26U, U27A, C28G, U30G
DNA 1: CAATCTGAATTCCGGTCTCCC
DNA 2: TGGTGGCTACGACGGGATT
B6: AGCGCCC (DNA:RNA)
RNA: B1 RNA with C26G, U27C, C28G, U30C, U31C
DNA 1: CAATCTGAATTCCGGTCTCCC
DNA 2: TGGTGGCTACGACGGGATT
B7: CCGCGAA (DNA:RNA)
RNA: B3 RNA with U25C, G26C, A28C, C30A
DNA 1: CAATCTGAATTCCGGTCTCCC
DNA 2: TGGTGGCTACGACGGGATT
B8: CUGGAUU (DNA:RNA)
RNA: B1 RNA with A25C, C26U, U27G, C28G, C29A
DNA 1: CAATCTGAATTCCGGTCTCCC
DNA 2: TGGTGGCTACGACGGGATT
B9: UGGUCGU (DNA:RNA)
RNA: B3 RNA with A28U, G29C, C30G, A31U
DNA 1: CAATCTGAATTCCGGTCTCCC
DNA 2: TGGTGGCTACGACGGGATT
B10: UAUAGCC (DNA:RNA)
RNA: B3 RNA with G26A, G27U, A31C
DNA 1: CAATCTGAATTCCGGTCTCCC
DNA 2: TGGTGGCTACGACGGGATT
B11: UGUCCCU (DNA:RNA)
RNA: B1 RNA with A25U, C26G, U30C
DNA 1: CAATCTGAATTCCGGTCTCCC
DNA 2: TGGTGGCTACGACGGGATT
B12: GUCUUAU (DNA:RNA)
RNA: B1 RNA with A25G, C26U, U27C, C28U, C29U, U30A
DNA 1: CAATCTGAATTCCGGTCTCCC
DNA 2: TGGTGGCTACGACGGGATT
B13: ACGAGGU (DNA:RNA)
RNA: B1 RNA with U27G, C28A, C29G, U30G
DNA 1: CAATCTGAATTCCGGTCTCCC
DNA 2: TGGTGGCTACGACGGGATT
B14: GGCGGGG (DNA:RNA)
RNA: B3 RNA with U25G, G27C, A28G, C30G, A31G
DNA 1: CAATCTGAATTCCGGTCTCCC
DNA 2: TGGTGGCTACGACGGGATT
B15: GUACUAG (DNA:RNA)
RNA: B1 RNA with A25G, C26U, U27A, C29U, U30A, U31G
DNA 1: CAATCTGAATTCCGGTCTCCC
DNA 2: TGGTGGCTACGACGGGATT
B16: GUAAAUU (DNA:RNA)
RNA: B1 RNA with A25G, C26U, U27A, C28A, C29A
DNA 1: CAATCTGAATTCCGGTCTCCC
DNA 2: TGGTGGCTACGACGGGATT
B17: CGUAGGU (DNA:RNA)
RNA: B3 RNA with U25C, G27U, C30G, A31U
DNA 1: CAATCTGAATTCCGGTCTCCC
DNA 2: TGGTGGCTACGACGGGATT
B18: UGGGUUA (DNA:RNA)
RNA: B3 RNA with A28G, G29U, C30U
DNA 1: CAATCTGAATTCCGGTCTCCC
DNA 2: TGGTGGCTACGACGGGATT
B19: AGGGAGA (DNA:RNA)
RNA: B3 RNA with U25A, A28G, G29A, C30G
DNA 1: CAATCTGAATTCCGGTCTCCC
DNA 2: TGGTGGCTACGACGGGATT
B20: UCCAAGG (DNA:RNA)
RNA: B3 RNA with G26C, G27C, G29A, C30G, A31G
DNA 1: CAATCTGAATTCCGGTCTCCC
DNA 2: TGGTGGCTACGACGGGATT

The assay concerns the target T1, RBFOX1 RRM. In words: EMSA; HiTS-Eq, 1 nM pool, 10 min; buffer printed only for the single-RNA assays: 10 mM Tris pH 7.5, 150 mM NaCl, 3.4 mM EDTA, 0.001% NP-40, 30 C. The following applies: tags: His6 N-terminal (pET28a); label: 5' 32P. Summed up:
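Purified wild-type or mutant RbFox RRM at increasing concentrations was equilibrated with 1 nM of 5′-radiolabelled RNA carrying 7 randomized nucleotides for 10 min in 50 µL. Unbound RNA was separated by 8% native PAGE and sequenced. Relative association constants came from read-count changes of each RNA species compared with the control reaction, normalised to the cognate motif.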
A general note: Mobility shift assays separate free from complexed probe on a gel.
Regarding B1, the binding signal is 0.000366 KA relative to UGCAUGU. As for B2, the binding signal was 0.0106 KA relative to UGCAUGU. In the case of B3 it was 0.0243 KA relative to UGCAUGU; in that of B4, 0.0162 KA relative to UGCAUGU; in that of B5, 0.0098 KA relative to UGCAUGU. Consider B6, for which the binding signal is 0.00884 KA relative to UGCAUGU.

Take B7: the binding signal was 0.0107 KA relative to UGCAUGU. For B8, the binding signal is 0.018 KA relative to UGCAUGU. In the case of B9 it was 0.0197 KA relative to UGCAUGU; in that of B10, 0.00159 KA relative to UGCAUGU. Turning to B11, the binding signal is 0.0126 KA relative to UGCAUGU.

For B12, the binding signal was 0.00585 KA relative to UGCAUGU.

With B13, the binding signal is 0.0133 KA relative to UGCAUGU. For B14, the binding signal was 0.0135 KA relative to UGCAUGU. As for B15, the binding signal is 0.00891 KA relative to UGCAUGU. The figure for B16 is 0.0031 KA relative to UGCAUGU; for B17 it is 0.00972 KA relative to UGCAUGU; for B18 it is 0.0229 KA relative to UGCAUGU. Consider B19, for which the binding signal is 0.018 KA relative to UGCAUGU. As to B20, the binding signal was 0.00701 KA relative to UGCAUGU.

The values above are taken from PMC9911399, “Two distinct binding modes provide the RNA-binding protein RbFox with extraordinary sequence specificity”.
